Measurements published in PubChem BioAssay (Tox21).
Where “and” joins values, the source holds several entries; their conditions need not be identical. Identical values can stand only once. Inconclusive results, whose numbers are uncertain, are shown with a selection of clear calls. For part of these data: Potencies beside an inconclusive call are fits to weak or partial responses and may not hold up. Where a structure was tested more than once in an assay, its records may differ in their call. Calls of active or inactive are those of the source. Unless noted, calls come from the whole dose curve; as a rule, active = well fitted curve in the direction sought with a large enough effect in the repeat runs; inconclusive = weak or mixed curves; inactive = no such curve, though single readings can be large; an effect the other way counts as inactive or inconclusive.

Key:
[1] = molecular target: Peroxisome proliferator-activated receptor gamma (Homo sapiens) (UniProt P37231); assay: qHTS assay to identify small molecule agonists of the peroxisome proliferator-activated receptor gamma (PPARg) signaling pathway (AID 743094; active = well fitted activation curve with a large enough effect in the signal ratio in the repeat runs, not every such curve was filed as active; inconclusive = weak or mixed curves, or effect the other way; inactive = no such curve, though single readings can be large or run the other way; the % refers to the signal ratio; note: potency is the fitted concentration of half-maximal effect; for activation: % is set by controls: 0 for no effect and ±100 for the full control effect); conditions: HEK293H PPARg-UAS-bla, beta-lactamase FRET ratio, 17 h; activation: at 57 µM (top of the series) unless noted
Sequence of UniProt P37231 (P37231 whole entry, looked up): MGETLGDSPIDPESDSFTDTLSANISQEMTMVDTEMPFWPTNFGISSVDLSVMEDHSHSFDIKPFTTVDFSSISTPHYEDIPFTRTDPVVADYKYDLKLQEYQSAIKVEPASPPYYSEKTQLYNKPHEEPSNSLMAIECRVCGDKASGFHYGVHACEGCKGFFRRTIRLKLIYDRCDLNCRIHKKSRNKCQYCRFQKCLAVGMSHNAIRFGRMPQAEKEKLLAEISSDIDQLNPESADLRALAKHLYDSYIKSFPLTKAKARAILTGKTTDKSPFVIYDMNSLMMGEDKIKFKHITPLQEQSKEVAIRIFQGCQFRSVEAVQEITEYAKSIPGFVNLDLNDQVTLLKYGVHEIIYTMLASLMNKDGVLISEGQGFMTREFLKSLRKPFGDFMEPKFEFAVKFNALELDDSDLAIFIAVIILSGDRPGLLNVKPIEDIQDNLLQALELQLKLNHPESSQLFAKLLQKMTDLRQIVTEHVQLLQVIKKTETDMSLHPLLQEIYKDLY
How it was run: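 Compounds dissolved in DMSO were added to PPARg UAS-bla HEK293H cells for 17 h at 37C, and reporter expression was quantified by fluorescence intensity after 1 h with LiveBLAzer B/G FRET substrate.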

[2] = molecular target: Peroxisome proliferator-activated receptor gamma (Homo sapiens) (UniProt P37231); assay: qHTS assay to identify small molecule antagonists of the peroxisome proliferator-activated receptor gamma (PPARg) signaling pathway (AID 743191; calls by dose curve; note: nearly all actives have a fitted effect of over 30% in size; note: potency is the fitted concentration of half-maximal effect; for ratio activity, negative = inhibition: % is set by controls: 0 for no effect and ±100 for the full control effect); conditions: HEK293H PPARg-UAS-bla, beta-lactamase ratio, antagonist, 17 h
How it was run: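 GeneBLAzer PPARg UAS-bla HEK293H cells carrying a UAS-driven beta-lactamase reporter were plated at 3000 cells/well, preincubated 5 h at 37C, then given compound for 17 h at 37C; LiveBLAzer B/G FRET substrate was read after 1 h at room temperature.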

[3] = qHTS assay for small molecule agonists of the antioxidant response element (ARE) signaling pathway (AID 743202; active = well fitted activation curve with a large enough effect in the signal ratio in the repeat runs, not every such curve was filed as active; inconclusive = weak or mixed curves, or effect the other way; inactive = no such curve, though single readings can be large or run the other way; the % refers to the signal ratio; note: potency is the fitted concentration of half-maximal effect); conditions: HepG2 ARE-bla reporter, beta-lactamase FRET, 16 h
How it was run: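 Read-out: LiveBLAzer B/G FRET substrate fluorescence after 2 h at room temperature, following 16 h compound treatment at 37 C of HepG2 cells carrying an ARE-driven beta-lactamase reporter.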

[4] = qHTS assay for small molecule activators of the heat shock response signaling pathway (AID 743210; active = well fitted activation curve with a large enough effect in the signal ratio in the repeat runs, with a control signal flat, not every such curve was filed as active; inconclusive = weak or mixed curves; the % refers to the signal ratio; note: potency is the fitted concentration of half-maximal effect); conditions: HeLa HSE-bla reporter, beta-lactamase ratio, 5 h; activation: at 62.6 µM (top of the series)
How it was run: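 HSE-bla HeLa cells (beta-lactamase reporter under heat shock response elements) were exposed to compounds for 5 h at 37 C, then loaded with LiveBLAzer B/G FRET substrate for 2.5 h at room temperature before fluorescence reading.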

[5] = qHTS assay to identify small molecule agonists of the peroxisome proliferator-activated receptor delta (PPARd) signaling pathway - cell viability counter screen (AID 743211); conditions: PPARd-bla HEK293H viability, CellTiter-Glo luminescence, 17 h; activity change, negative = cytotoxicity: at 62.6 µM (top of the series); note: potency is the fitted concentration of half-maximal effect; nearly all actives have a fitted effect of over 55% in size
How it was run: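 Following 5 h plating at 37 C and 5% CO2, PPARd UAS-bla HEK293H cells took up test compounds for 17 h. Viability was quantified by luminescence 30 min after CellTiter-Glo addition at room temperature.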

[6] = molecular target: Peroxisome proliferator-activated receptor delta (Homo sapiens) (UniProt Q03181); assay: qHTS assay to identify small molecule agonists of the peroxisome proliferator-activated receptor delta (PPARd) signaling pathway (AID 743212; calls by dose curve; note: potency is the fitted concentration of half-maximal effect); conditions: HEK293H PPARd-UAS-bla, beta-lactamase FRET ratio, 17 h; activation: at 62.6 µM (top of the series) unless noted
Sequence of UniProt Q03181 (Q03181 whole entry, looked up): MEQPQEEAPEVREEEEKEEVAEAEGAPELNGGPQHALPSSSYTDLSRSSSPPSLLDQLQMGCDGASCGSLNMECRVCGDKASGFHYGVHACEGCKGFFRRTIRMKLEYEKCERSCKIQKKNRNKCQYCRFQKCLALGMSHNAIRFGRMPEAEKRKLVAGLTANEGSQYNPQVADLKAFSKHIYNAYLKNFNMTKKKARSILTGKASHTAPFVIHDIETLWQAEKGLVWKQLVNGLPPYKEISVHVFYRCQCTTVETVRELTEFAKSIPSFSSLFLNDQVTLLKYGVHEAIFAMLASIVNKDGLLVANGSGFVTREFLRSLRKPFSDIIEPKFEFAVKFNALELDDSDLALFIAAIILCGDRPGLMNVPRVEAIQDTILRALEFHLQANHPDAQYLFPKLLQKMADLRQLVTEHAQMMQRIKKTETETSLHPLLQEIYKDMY
How it was run: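 GeneBLAzer PPARd UAS-bla HEK293H cells (beta-lactamase reporter under UAS control), plated and rested 5 h at 37 C, then exposed to compounds in DMSO at 37 C; LiveBLAzer B/G FRET substrate added, 2 h room temperature, fluorescence read.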

[7] = qHTS assay to identify small molecule antagonists of the peroxisome proliferator-activated receptor delta (PPARd) signaling pathway - cell viability counter screen (AID 743213); conditions: PPARd-bla HEK293H viability, CellTiter-Glo luminescence, 17 h; viability change, negative = cytotoxic: at 62 µM (top of the series) unless noted; note: potency is the fitted concentration of half-maximal effect; nearly all actives have a fitted effect of over 50% in size
How it was run: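 Cytotoxicity counter screen: CellTiter-Glo luminescence read 30 min after addition, in the same wells as the reporter assay. There, PPARd UAS-bla HEK293H cells (3000/well) were treated 17 h at 37 C with compound and 300 nM L165041.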

[8] = molecular target: Peroxisome proliferator-activated receptor delta (Homo sapiens) (UniProt Q03181); assay: qHTS assay to identify small molecule antagonists of the peroxisome proliferator-activated receptor delta (PPARd) signaling pathway (AID 743215; active = well fitted inhibition curve with a large enough effect in the signal ratio in the repeat runs, not every such curve was filed as active; inconclusive = weak or mixed curves, or effect the other way; inactive = no such curve, though single readings can be large or run the other way; the % refers to the signal ratio;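 note: cells stimulated with agonist L165041 at 300 nM final during compound exposure; potency is the fitted concentration of half-maximal effect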); conditions: HEK293H PPARd-UAS-bla, beta-lactamase FRET ratio, antagonist, 17 h; ratio activity, negative = inhibition: at 62 µM (top of the series) unless noted
How it was run: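 HEK293H UAS-bla, PPARd; agonist L165041 300 nM final with cpd in DMSO; 37 C 17 h; FRET substrate, RT 2 h; fluorescence intensity.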

[9] = qHTS assay to identify small molecule agonists of the farnesoid-X-receptor (FXR) signaling pathway - cell viability counter screen (AID 743218); conditions: FXR-bla HEK293T viability, CellTiter-Glo luminescence, 16 h; viability change, negative = cytotoxic: at 62.6 µM (top of the series) unless noted; note: nearly all actives have a fitted effect of over 45% in size; note: potency is the fitted concentration of half-maximal effect
How it was run: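 Parallel cytotoxicity test: compound-treated (16 h, 37 C) HEK 293T FXR-bla reporter cells were lysed with CellTiter-Glo and luminescence recorded.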

[10] = qHTS assay to identify small molecule antagonists of the farnesoid-X-receptor (FXR) signaling pathway - cell viability counter screen (AID 743221; active = well fitted cell-killing curve with a large enough effect in the repeat runs, not every such curve was filed as active; inconclusive = weak or mixed curves, or effect the other way; inactive = no such curve, though single readings can be large or run the other way; note: potency is the fitted concentration of half-maximal effect; nearly all actives have a fitted effect of over 50% in size); conditions: FXR-bla HEK293T viability, CellTiter-Glo luminescence, 16 h; activity change, negative = cytotoxicity: at 62.6 µM (top of the series)
How it was run: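 Compound effects on cell number were measured as CellTiter-Glo luminescence in HEK 293T cells expressing FXR-UAS-bla, after 16 h at 37 C with 50 uM CDCA (final).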

[11] = qHTS assay to identify small molecule agonists of the vitamin D receptor (VDR) signaling pathway - cell viability counter screen (AID 743224); conditions: VDR-bla HEK293T viability, CellTiter-Glo luminescence, 16 h; activity change, negative = cytotoxicity: at 62.6 µM (top of the series) unless noted; note: potency is the fitted concentration of half-maximal effect; nearly all actives have a fitted effect of over 50% in size
How it was run: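 Plated VDR-bla cells (4 h, 37C) received compound, incubated 16 h, then LiveBLAzer substrate 2 h RT; CellTiter-Glo added afterwards, luminescence read at 30 min.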

[12] = molecular target: Vitamin D3 receptor (Homo sapiens) (UniProt P11473); assay: qHTS assay to identify small molecule agonists of the vitamin D receptor (VDR) signaling pathway (AID 743222; calls by dose curve; note: potency is the fitted concentration of half-maximal effect); conditions: HEK293T VDR-UAS-bla, beta-lactamase FRET ratio, 16 h; activation: at 63.5 µM (top of the series) unless noted
Sequence of UniProt P11473 (P11473 whole entry, looked up): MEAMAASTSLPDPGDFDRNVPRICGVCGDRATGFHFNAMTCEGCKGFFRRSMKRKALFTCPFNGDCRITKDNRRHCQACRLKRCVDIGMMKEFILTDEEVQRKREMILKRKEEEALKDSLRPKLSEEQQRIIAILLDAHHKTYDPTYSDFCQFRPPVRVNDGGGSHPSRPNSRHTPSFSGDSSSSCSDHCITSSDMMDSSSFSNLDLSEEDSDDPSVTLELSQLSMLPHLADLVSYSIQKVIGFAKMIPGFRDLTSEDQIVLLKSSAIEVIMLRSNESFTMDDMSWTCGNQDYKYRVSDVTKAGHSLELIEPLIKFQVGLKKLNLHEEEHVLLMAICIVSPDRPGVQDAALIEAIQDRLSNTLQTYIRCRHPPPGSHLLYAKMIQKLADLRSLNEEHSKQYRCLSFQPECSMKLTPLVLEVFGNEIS
How it was run: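 In VDR-bla cells, compound-induced beta-lactamase expression is quantified by FRET substrate fluorescence. Treatment lasts 16 h at 37C; substrate develops 2 h at room temperature.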

[13] = molecular target: Vitamin D3 receptor (Homo sapiens) (UniProt P11473); assay: qHTS assay to identify small molecule antagonists of the vitamin D receptor (VDR) signaling pathway (AID 743223; active = well fitted inhibition curve with a large enough effect in the signal ratio in the repeat runs, not every such curve was filed as active; inconclusive = weak or mixed curves, or effect the other way; inactive = no such curve, though single readings can be large or run the other way; the % refers to the signal ratio; note: potency is the fitted concentration of half-maximal effect); conditions: VDR-UAS-bla HEK293T, beta-lactamase FRET ratio, 16 h; activity change, negative = inhibition: at 61 µM (top of the series) unless noted
How it was run: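 Beta-lactamase activity in VDR-bla cells is measured by FRET substrate fluorescence (2 h, room temperature) after cells spend 16 h at 37C with test compound and 3 nM final 1alpha,25-dihydroxyvitamin D3.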

[14] = qHTS assay to identify small molecule that activate the aryl hydrocarbon receptor (AhR) signaling pathway - cell viability counter screen (AID 743086); note: nearly all actives have a fitted effect of over 45% in size; note: potency is the fitted concentration of half-maximal effect
How it was run: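 HepG2-AhR-luc (HG2L7.5c1) cells, 4000/well, were preincubated 5 h at 37C, exposed to compound in qHTS format for 24 hr at 37C, then given CellTiter-Fluor for 30 min; viability was read as fluorescence in the reporter wells.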

[15] = qHTS assay for small molecule activators of the heat shock response signaling pathway - cell viability counter screen (AID 743209); conditions: HSE-bla HeLa viability, CellTiter-Glo luminescence, 5 h; activity change, negative = cytotoxicity: at 62.6 µM (top of the series) unless noted; note: potency is the fitted concentration of half-maximal effect; nearly all actives have a fitted effect of over 50% in size
How it was run: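 Readout: CellTiter-Glo luminescence, 30 min at room temperature. System: HSE-bla HeLa cells, 1500/well, plated overnight. Treatment: compounds in DMSO, 5 h at 37 C.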

[16] = qHTS assay to identify small molecule antagonists of the vitamin D receptor (VDR) signaling pathway - cell viability counter screen (AID 743225); conditions: VDR-bla HEK293T viability, CellTiter-Glo luminescence, 16 h; viability change, negative = cytotoxic: at 61 µM (top of the series) unless noted
How it was run: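 In this counter screen, VDR-bla HEK 293T cells receive test compound plus 3 nM final calcitriol for 16 h at 37C. Room-temperature steps of 2 h with the beta-lactamase substrate, then 30 min with CellTiter-Glo, precede the luminescence read.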

[17] = molecular target: Bile acid receptor (Homo sapiens) (UniProt Q96RI1); assay: qHTS assay to identify small molecule antagonists of the farnesoid-X-receptor (FXR) signaling pathway (AID 743217; active = well fitted inhibition curve with a large enough effect in the signal ratio in the repeat runs, not every such curve was filed as active; inconclusive = weak or mixed curves, or effect the other way; inactive = no such curve, though single readings can be large or run the other way; the % refers to the signal ratio; note: % is set by controls: 0 for no effect and ±100 for the full control effect); conditions: HEK293T FXR-UAS-bla, beta-lactamase ratio, CDCA-stimulated, 16 h; activity change, negative = inhibition: at 62.6 µM (top of the series) unless noted
Sequence of UniProt Q96RI1 (Q96RI1 whole entry, looked up): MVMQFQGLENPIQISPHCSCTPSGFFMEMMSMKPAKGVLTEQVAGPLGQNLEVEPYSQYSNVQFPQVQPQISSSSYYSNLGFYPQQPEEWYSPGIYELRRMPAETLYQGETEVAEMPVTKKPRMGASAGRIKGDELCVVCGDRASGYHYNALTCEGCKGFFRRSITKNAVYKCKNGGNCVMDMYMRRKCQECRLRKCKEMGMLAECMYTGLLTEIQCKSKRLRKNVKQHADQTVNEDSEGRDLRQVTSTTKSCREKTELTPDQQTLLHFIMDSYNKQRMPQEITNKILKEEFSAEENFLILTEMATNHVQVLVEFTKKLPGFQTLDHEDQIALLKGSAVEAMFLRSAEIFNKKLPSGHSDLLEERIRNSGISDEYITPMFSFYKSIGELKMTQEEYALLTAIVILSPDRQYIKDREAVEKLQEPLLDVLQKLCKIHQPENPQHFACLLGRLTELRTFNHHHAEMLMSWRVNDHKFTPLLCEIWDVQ
How it was run: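 GeneBLAzer FXR-UAS-bla HEK 293T, CDCA-stimulated (50 uM final). Compound treatment 16 h, 37 °C. Detection: beta-lactamase cleavage of B/G FRET substrate, fluorescence.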

[18] = molecular target: Bile acid receptor (Homo sapiens) (UniProt Q96RI1); assay: qHTS assay to identify small molecule agonists of the farnesoid-X-receptor (FXR) signaling pathway (AID 743220; active = well fitted activation curve with a large enough effect in the signal ratio in the repeat runs, not every such curve was filed as active; inconclusive = weak or mixed curves, or effect the other way; the % refers to the signal ratio; note: % is set by controls: 0 for no effect and ±100 for the full control effect); conditions: HEK293T FXR-UAS-bla, beta-lactamase FRET ratio, 16 h; activation: at 62.6 µM (top of the series) unless noted
How it was run: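 Beta-lactamase reporter under UAS control in GeneBLAzer FXR HEK 293T cells (5000/well) measured with LiveBLAzer FRET substrate after 2 h at room temperature. Compound exposure lasted 16 h at 37C.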

[19] = ratio activity, negative = inhibition: at 62.6 µM (top of the series) unless noted
[20] = activation: at 73.3 µM (top of the series) unless noted
Tags give direction and shape of the fitted curve or compound fluorescence and quenching.

Brc1cc(Oc2cc(Br)c(Br)c(Br)c2Br)c(Br)c(Br)c1Br
activation [1]: inconclusive: 0.715% [at 78.9 µM]
ratio activity, negative = inhibition ([2]; at 62.6 µM (top of the series)): inactive: 10.2%
ratio activity, negative = inhibition [2, 19]: inconclusive: 2.99% [at 81.1 µM]
activation ([3]; at 73.3 µM (top of the series)): inconclusive: -24%
activation ([3]; at 94.8 µM (top of the series)): inconclusive: -13.5%
Potency [4]: inconclusive: 55.2 µM [activator, single point]
Potency [5]: inconclusive: 39.1 µM [cytotoxic, partial curve]
Potency [6]: inconclusive: 39.1 µM [rising, partial curve]
Potency [7]: active: 55.2 µM
Potency [8]: inconclusive: 61.9 µM [single point]
Potency [9]: inconclusive: 8.75 µM [cytotoxic, full curve] and inactive
Potency [10]: inconclusive: 7.8 µM [falling, full curve]
Potency [11]: inconclusive: 55.2 µM [cytotoxic, single point]

CC(=O)O[C@]1(C(C)=O)CC[C@H]2[C@@H]3C=C(C)C4=CC(=O)CC[C@]4(C)[C@H]3CC[C@@]21C
Potency [1]: inconclusive: 13.8 µM [fluorescent, full curve]
Potency [2, 19]: inconclusive: 13.8 µM [fluorescent, full curve, poor fit]
ratio activity, negative = inhibition [2, 19]: inconclusive: 22.5%
Potency [3, 20]: active: 19.3 µM and active: 11.9 µM
Potency [12]: inconclusive: 24.5 µM [rising, partial curve] and inconclusive: 473 nM [rising, partial curve]
activity change, negative = inhibition [13]: inconclusive: 20.8%

O=C(c1ccc(OCCN2CCCCC2)cc1)c1c(-c2ccc(O)cc2)sc2cc(O)ccc12
Potency [14]: active: 21.1 µM and active: 21.7 µM and active: 19.3 µM
activation [3, 20]: inconclusive: -21.4%
Potency [15]: inconclusive: 55 µM [cytotoxic, single point]
Potency [4]: inconclusive: 57.2 µM and inconclusive: 50.9 µM
Potency [7]: active: 24.6 µM and active: 8.71 µM and active: 26.6 µM
Potency [9]: active: 49 µM and active: 12.3 µM and active: 23.7 µM
activation [12]: inconclusive: -5.02%
Potency [13]: inconclusive: 55 µM and inconclusive: 19.5 µM [full curve]
activity change, negative = inhibition [13]: inconclusive: -43.6%
Potency [16]: inconclusive: 55 µM [cytotoxic, single point] and active: 17.4 µM and inconclusive: 26.8 µM [cytotoxic, single point]

C[C@]12CC[C@@H]3c4ccc(O)cc4CC[C@H]3[C@@H]1CCC2=O
Potency [14]: inactive
Potency [4]: inactive
activity change, negative = inhibition [17]: inconclusive: -26.3%
activation [18]: inconclusive: -1.5%
